{
  "source": "PubChem BioAssay AID1745853",
  "about": "(National Center for Advancing Translational Sciences (NCATS), 2022)",
  "test_in_all_cases": "Primary Screen for Target Class Profiling of Small Molecule Inhibitors of Methyltransferases",
  "key": {"[1]": {"target": "Glycine N-methyltransferase (Homo sapiens) (UniProt Q14749)", "conditions": "purified enzyme, MTase-Glo SAH luminescence; measured here: GNMT inhibition; at 40 µM; stronger effect = lower value", "outline": "(§1)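 Each enzyme was reacted with SAM and its substrate, with compounds tested once at 40 uM; SAH formed was read by MTase-Glo luminescence.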"}, "[2]": {"target": "Guanidinoacetate N-methyltransferase (Homo sapiens) (UniProt Q14353)", "conditions": "purified enzyme, MTase-Glo SAH luminescence; measured here: GAMT inhibition; at 40 µM; stronger effect = lower value", "outline": "as §1"}, "[3]": {"target": "Histamine N-methyltransferase (Homo sapiens) (UniProt P50135)", "conditions": "purified enzyme, MTase-Glo SAH luminescence; measured here: HNMT inhibition; at 40 µM; stronger effect = lower value", "outline": "as §1"}, "[4]": {"target": "Nicotinamide N-methyltransferase (Homo sapiens) (UniProt P40261)", "conditions": "purified enzyme, MTase-Glo SAH luminescence; measured here: NNMT inhibition; at 40 µM; stronger effect = lower value", "outline": "as §1"}, "[5]": {"target": "Phenylethanolamine N-methyltransferase (Homo sapiens) (UniProt P11086)", "conditions": "purified enzyme, MTase-Glo SAH luminescence; measured here: PNMT inhibition; at 40 µM; stronger effect = lower value", "outline": "as §1"}},
  "note": "The other results are listed elsewhere or left out. Shown are side measurements of this screen, not its main read-out; they come without a call. % is scaled to controls: 0 for no effect and ±100 for the full control effect.",
  "data": [
    {"smiles": "Cc1ccccc1C(=O)N1CCC(N2CCCNC2=O)CC1", "values": [
      {"measurement": "activity change, negative = inhibition", "setting": "[1]", "value": -4.68, "unit": "%"},
      {"measurement": "activity change, negative = inhibition", "setting": "[2]", "value": -9.39, "unit": "%"},
      {"measurement": "activity change, negative = inhibition", "setting": "[3]", "value": -1.1, "unit": "%"},
      {"measurement": "activity change, negative = inhibition", "setting": "[4]", "value": -16.4, "unit": "%"},
      {"measurement": "activity change, negative = inhibition", "setting": "[5]", "value": -12.5, "unit": "%"}
    ]},
    {"smiles": "COc1ccc(N2Cc3c(NCCc4ccccc4F)ncnc3N(C)CC2=O)cc1", "values": [
      {"measurement": "activity change, negative = inhibition", "setting": "[1]", "value": -10.3, "unit": "%"},
      {"measurement": "activity change, negative = inhibition", "setting": "[2]", "value": -11, "unit": "%"},
      {"measurement": "activity change, negative = inhibition", "setting": "[3]", "value": -6.62, "unit": "%"},
      {"measurement": "activity change, negative = inhibition", "setting": "[4]", "value": -19.5, "unit": "%"},
      {"measurement": "activity change, negative = inhibition", "setting": "[5]", "value": -6.6, "unit": "%"}
    ]},
    {"smiles": "Cc1cc2c(cc1S(=O)(=O)Nc1ccc(F)c(Cl)c1)n(C)c(=O)n2C", "values": [
      {"measurement": "activity change, negative = inhibition", "setting": "[1]", "value": 10.4, "unit": "%"},
      {"measurement": "activity change, negative = inhibition", "setting": "[2]", "value": 0, "unit": "%"},
      {"measurement": "activity change, negative = inhibition", "setting": "[3]", "value": 5.01, "unit": "%"},
      {"measurement": "activity change, negative = inhibition", "setting": "[4]", "value": -6.15, "unit": "%"},
      {"measurement": "activity change, negative = inhibition", "setting": "[5]", "value": 3.1, "unit": "%"}
    ]},
    {"smiles": "CCOc1ccc(NC(=O)Cn2nc3n(c2=O)CCN(Cc2ccccc2C)C3=O)cc1", "values": [
      {"measurement": "activity change, negative = inhibition", "setting": "[1]", "value": -4.81, "unit": "%"},
      {"measurement": "activity change, negative = inhibition", "setting": "[2]", "value": 0.055, "unit": "%"},
      {"measurement": "activity change, negative = inhibition", "setting": "[3]", "value": -0.664, "unit": "%"},
      {"measurement": "activity change, negative = inhibition", "setting": "[4]", "value": -3.81, "unit": "%"},
      {"measurement": "activity change, negative = inhibition", "setting": "[5]", "value": -0.735, "unit": "%"}
    ]},
    {"smiles": "CC1NC(=O)C(Cc2c[nH]c3ccccc23)NC1=O", "note": "(stereo not drawn)", "values": [
      {"measurement": "activity change, negative = inhibition", "setting": "[1]", "value": -0.037, "unit": "%"},
      {"measurement": "activity change, negative = inhibition", "setting": "[2]", "value": 1.33, "unit": "%"},
      {"measurement": "activity change, negative = inhibition", "setting": "[3]", "value": 9.38, "unit": "%"},
      {"measurement": "activity change, negative = inhibition", "setting": "[4]", "value": -12.3, "unit": "%"},
      {"measurement": "activity change, negative = inhibition", "setting": "[5]", "value": -5.62, "unit": "%"}
    ]},
    {"smiles": "c1ccc(C(NCCNC(c2ccccc2)c2ccccc2)c2ccccc2)cc1", "values": [
      {"measurement": "activity change, negative = inhibition", "setting": "[1]", "value": -4.94, "unit": "%"},
      {"measurement": "activity change, negative = inhibition", "setting": "[2]", "value": 5.59, "unit": "%"},
      {"measurement": "activity change, negative = inhibition", "setting": "[3]", "value": -1.01, "unit": "%"},
      {"measurement": "activity change, negative = inhibition", "setting": "[4]", "value": -3.68, "unit": "%"},
      {"measurement": "activity change, negative = inhibition", "setting": "[5]", "value": 5.51, "unit": "%"}
    ]},
    {"smiles": "CCCn1c(=O)c2cc(Cl)ccc2n2c(SCc3cccc(OC)c3)nnc12", "values": [
      {"measurement": "activity change, negative = inhibition", "setting": "[1]", "value": -12.9, "unit": "%"},
      {"measurement": "activity change, negative = inhibition", "setting": "[2]", "value": 1.6, "unit": "%"},
      {"measurement": "activity change, negative = inhibition", "setting": "[3]", "value": 1.44, "unit": "%"},
      {"measurement": "activity change, negative = inhibition", "setting": "[4]", "value": -12.8, "unit": "%"},
      {"measurement": "activity change, negative = inhibition", "setting": "[5]", "value": -1.43, "unit": "%"}
    ]},
    {"smiles": "CCN(CC)C(=O)[C@@H]1CCC[C@@H](NC2CCOCC2)CN(C)C(=O)C1", "values": [
      {"measurement": "activity change, negative = inhibition", "setting": "[1]", "value": -6.09, "unit": "%"},
      {"measurement": "activity change, negative = inhibition", "setting": "[2]", "value": -6.74, "unit": "%"},
      {"measurement": "activity change, negative = inhibition", "setting": "[3]", "value": -2.37, "unit": "%"},
      {"measurement": "activity change, negative = inhibition", "setting": "[4]", "value": -13.7, "unit": "%"},
      {"measurement": "activity change, negative = inhibition", "setting": "[5]", "value": -8.23, "unit": "%"}
    ]},
    {"smiles": "CC(=O)O[C@H]1C[C@@]2(C)[C@@H](CC[C@H]3[C@@]4(C)C=CC(=O)[C@@H](C)[C@@H]4[C@H](O)C(=O)[C@@]32C)/C1=C(/CCC=C(C)C)C(=O)O", "values": [
      {"measurement": "activity change, negative = inhibition", "setting": "[1]", "value": 0, "unit": "%"},
      {"measurement": "activity change, negative = inhibition", "setting": "[2]", "value": -5.72, "unit": "%"},
      {"measurement": "activity change, negative = inhibition", "setting": "[3]", "value": 8.45, "unit": "%"},
      {"measurement": "activity change, negative = inhibition", "setting": "[4]", "value": -21.1, "unit": "%"},
      {"measurement": "activity change, negative = inhibition", "setting": "[5]", "value": -9.5, "unit": "%"}
    ]},
    {"smiles": "CNC(=O)c1noc(CN2CCCC(CCc3ccccc3F)C2)n1", "note": "(stereo not drawn)", "values": [
      {"measurement": "activity change, negative = inhibition", "setting": "[1]", "value": -8.19, "unit": "%"},
      {"measurement": "activity change, negative = inhibition", "setting": "[2]", "value": -7.29, "unit": "%"},
      {"measurement": "activity change, negative = inhibition", "setting": "[3]", "value": -6.44, "unit": "%"},
      {"measurement": "activity change, negative = inhibition", "setting": "[4]", "value": -17.4, "unit": "%"},
      {"measurement": "activity change, negative = inhibition", "setting": "[5]", "value": 5.23, "unit": "%"}
    ]},
    {"smiles": "COc1ccc(N2C(=O)c3ccc(-c4ccco4)n3CC2(C)C(=O)NCc2ccccc2)cc1OC", "note": "(stereo not drawn)", "values": [
      {"measurement": "activity change, negative = inhibition", "setting": "[1]", "value": -38, "unit": "%"},
      {"measurement": "activity change, negative = inhibition", "setting": "[2]", "value": 2.04, "unit": "%"},
      {"measurement": "activity change, negative = inhibition", "setting": "[3]", "value": 5.18, "unit": "%"},
      {"measurement": "activity change, negative = inhibition", "setting": "[4]", "value": -1.32, "unit": "%"},
      {"measurement": "activity change, negative = inhibition", "setting": "[5]", "value": -2.93, "unit": "%"}
    ]},
    {"smiles": "CN(C)C(=O)CO[C@H]1COCCN(Cc2ccccn2)C1", "values": [
      {"measurement": "activity change, negative = inhibition", "setting": "[1]", "value": -5.07, "unit": "%"},
      {"measurement": "activity change, negative = inhibition", "setting": "[2]", "value": -1.22, "unit": "%"},
      {"measurement": "activity change, negative = inhibition", "setting": "[3]", "value": -5.15, "unit": "%"},
      {"measurement": "activity change, negative = inhibition", "setting": "[4]", "value": -4.12, "unit": "%"},
      {"measurement": "activity change, negative = inhibition", "setting": "[5]", "value": 11.8, "unit": "%"}
    ]},
    {"smiles": "O=C(N[C@@H]1CCCc2c1cnn2-c1ccc(F)cc1F)c1ccccn1", "values": [
      {"measurement": "activity change, negative = inhibition", "setting": "[1]", "value": 1.83, "unit": "%"},
      {"measurement": "activity change, negative = inhibition", "setting": "[2]", "value": 7.09, "unit": "%"},
      {"measurement": "activity change, negative = inhibition", "setting": "[3]", "value": 4.51, "unit": "%"},
      {"measurement": "activity change, negative = inhibition", "setting": "[4]", "value": -13.5, "unit": "%"},
      {"measurement": "activity change, negative = inhibition", "setting": "[5]", "value": -4.68, "unit": "%"}
    ]},
    {"smiles": "C[C@@H]1C(=O)OC2[C@H](O)[C@]34[C@H]5C[C@@H](C(C)(C)C)[C@]36[C@@H](OC(=O)[C@@H]6O)O[C@@]4(C(=O)O5)[C@]21O", "note": "(stereo partly drawn)", "values": [
      {"measurement": "activity change, negative = inhibition", "setting": "[2]", "value": -9.33, "unit": "%"},
      {"measurement": "activity change, negative = inhibition", "setting": "[4]", "value": -16.8, "unit": "%"},
      {"measurement": "activity change, negative = inhibition", "setting": "[5]", "value": -4.65, "unit": "%"}
    ]},
    {"smiles": "COc1cc2c(cc1OC)[C@@H]1[C@H](O)[C@@H](OC)C=C3CCN(C2)[C@H]31", "values": [
      {"measurement": "activity change, negative = inhibition", "setting": "[1]", "value": 1.21, "unit": "%"},
      {"measurement": "activity change, negative = inhibition", "setting": "[2]", "value": -3.59, "unit": "%"},
      {"measurement": "activity change, negative = inhibition", "setting": "[3]", "value": 9.9, "unit": "%"},
      {"measurement": "activity change, negative = inhibition", "setting": "[4]", "value": -20.8, "unit": "%"},
      {"measurement": "activity change, negative = inhibition", "setting": "[5]", "value": -0.685, "unit": "%"}
    ]}
  ]
}
